Reference: the supplement of paper PMC4723716
± gives the uncertainty stated by the source. Whole data set: some 9,900 compounds, median “viability index relative to DMSO control” near 1, cut for the lowest 2% near 0.85. This is one part of the list.

System: Plasmodium falciparum NF54 stage V gametocytes
Experiment: viability index relative to DMSO control (fraction); higher = less gametocyte killing
Settings: 2.5 µM, library set: Broad Institute DOS, incubation time: 72 h
How it was run: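 Compound at 2.5 µM was incubated for 72 hr at 37°C under low oxygen with P. falciparum NF54 stage V gametocytes (0.75% gametocytemia, 1.25% hematocrit, 10 µl, serum-free screening medium) in 1,536-well plates. Staining used 3 µl of 2.5 µM MitoTracker Red CMXRos plus 0.13% saponin for one to two hours, and red particles of 20–70 µm2 were counted in one imaged field per well. Each viability index is that count relative to the plate mean of solvent-only wells.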

| SMILES | viability index |
| --- | --- |
| CO[C@@H]1CN(C)C(=O)c2cc(NC(=O)c3nc4ccccc4s3)ccc2OC[C@@H](C)NC[C@@H]1C | 1.145 ± 0.0081 |
| C[C@H](O)C#Cc1ccc([C@H]2[C@@H](CO)N3CCCCN(CC4CC4)C[C@H]23)cc1 | 1.06 ± 0.02 |
| C[C@@H]1CCCCO[C@H](CN(C)Cc2ccc(Cl)c(Cl)c2)[C@@H](C)CN([C@H](C)CO)C(=O)c2cc(NS(=O)(=O)c3cccs3)ccc2O1 | 0.985 ± 0.089 |
| Cc1noc(C)c1NC(=O)N(C)C[C@H]1OCCCC[C@@H](C)Oc2ccc(NC(=O)Nc3ccc(C(F)(F)F)cc3)cc2C(=O)N([C@@H](C)CO)C[C@H]1C | 1.01 ± 0.025 |
| CCCNC(=O)N1C[C@@H](O)COC[C@@H]2O[C@@H](CC(=O)OC)CC[C@H]21 | 1.03 ± 0.085 |
| C[C@H](CO)N1C[C@H](C)[C@@H](CN(C)S(=O)(=O)c2ccccc2)Oc2ccc(NC(=O)C3CC3)cc2C1=O | 0.904 ± 0.08 |
| O=S(=O)(c1ccc(F)cc1)N1CCCCN2[C@H](C1)[C@@H](c1ccc(-c3cncnc3)cc1)[C@@H]2CO | 0.995 ± 0.025 |
| COc1ccccc1NC(=O)N1C[C@@H]2N[C@H](C1)[C@H]2c1ccc(-c2cccc(C#N)c2)cc1 | 1.03 ± 0.061 |
| C[C@H]1CN([C@@H](C)CO)C(=O)c2cc(N(C)C)ccc2O[C@H]1CN(C)CC1CCCCC1 | 1.04 ± 0.081 |
| COc1ccc(NC(=O)N2CCCCN3[C@H](C2)[C@H](c2ccc(-c4ccccc4F)cc2)[C@@H]3CO)cc1 | 0.969 ± 0.046 |
| O=C(c1ccccc1F)N1CC2(C1)[C@H](c1ccccc1)[C@H](CO)N2CC1CCOCC1 | 1.028 ± 0.0081 |
| Cc1ccccc1-c1ccccc1[C@H]1[C@@H](C#N)N(C(=O)c2ccc(F)cc2)[C@@H]1CO | 1.17 ± 0.067 |
| CN1C(=O)c2cc(NC(=O)c3cnccn3)ccc2OC[C@@H]2O[C@H](CC(=O)NCC3CCCCC3)CC[C@@H]21 | 1.03 ± 0.037 |
| CCCC(=O)Nc1ccc2c(c1)C(=O)N(C)[C@@H]1CC[C@@H](CC(=O)N3CCCCC3)O[C@H]1CO2 | 1.15 ± 0.075 |
| CC(C)C#Cc1ccc([C@@H]2[C@H](C#N)N(C(=O)c3cccc(F)c3)[C@H]2CO)cc1 | 1.032 ± 0.0094 |
| COCC(=O)N1C[C@@]2(C1)CN(Cc1ccccc1F)[C@@H](CO)c1[nH]c3cc(OC)ccc3c21 | 0.984 ± 0.09 |
| C[C@@H](NC(=O)C[C@@H]1C[C@H]2c3cc(NS(=O)(=O)c4ccc(F)cc4)ccc3O[C@H]2[C@@H](CO)O1)c1ccccc1 | 1.03 ± 0.085 |
| COc1cccc(C(=O)Nc2ccc3c(c2)C(=O)N(C)[C@@H]2CC[C@H](CC(=O)N[C@H](C)c4ccccc4)O[C@@H]2CO3)c1 | 1.12 ± 0.081 |
| CCCC(=O)N1CC[C@@]2(CC1)CN([C@@H](CO)c1[nH]c3cc(OC)ccc3c21)C(=O)C1CCC1 | 1.04 ± 0.037 |
| O=C(c1ccncc1)N1C[C@H]2[C@@H](c3ccccc31)[C@H](CO)N2C(=O)CN1CCOCC1 | 1.06 ± 0.09 |
| C[C@@H]1CN([C@@H](C)CO)C(=O)c2cc(NS(C)(=O)=O)ccc2O[C@H]1CN(C)C | 1.03 ± 0.068 |
| CCC(=O)N1[C@@H](CO)[C@@H](c2ccc(-c3cccc(OC)c3)cc2)C12CN(C(C)=O)C2 | 1 ± 0.049 |
| CC(=O)N1CC2(C1)[C@H](c1ccc(-c3ccc(F)cc3)cc1)[C@@H](CO)N2CC1CC1 | 1.11 ± 0.033 |
| Fc1ccc(-c2ccc([C@H]3[C@@H]4CN(Cc5ccccc5)C[C@H]3N4)cc2)cc1 | 0.952 ± 0.025 |

| SMILES | viability index |
| --- | --- |
| C[C@@H]1CN([C@H](C)CO)S(=O)(=O)c2ccc(-c3ccncc3)cc2O[C@@H]1CN(C)S(C)(=O)=O | 1.06 ± 0.062 |
| CO[C@H]1CC[C@H]2CCN(C)C(=O)CC3(CCCCC3)CN(C)C(=O)c3cc(C#N)ccc3OC[C@H]1O2 | 1.03 ± 0.028 |
| COc1ccc(NC(=O)N2CCCCN3[C@H](CO)[C@@H](c4ccc(-c5ccccc5F)cc4)[C@@H]3C2)cc1 | 1.04 ± 0.016 |
| C/C=C/c1cccc(-c2nc(C(=O)Nc3nccs3)cc3c2[C@@H](CCO)N(C(=O)NC(C)C)C3)c1 | 0.867 ± 0.035 |
| O=C(c1ccccn1)N1CC2(C1)[C@@H](c1ccccc1)[C@@H](CO)N2C(=O)C1CCCCC1 | 1.041 ± 0.0089 |
| O=C(CN1CCOCC1)NC[C@@H]1N[C@@H](CO)[C@H]1c1ccc(-c2ccccc2)cc1 | 1.02 ± 0.069 |
| CN(C)C(=O)c1ccc(-c2ccc([C@H]3[C@@H]4CN(C(=O)c5ccccn5)C[C@H]3N4)cc2)cc1 | 1.02 ± 0.17 |
| CC(C)CC#Cc1ccc([C@H]2[C@H](CO)N3CCCCN(C(=O)Nc4ccccc4)C[C@@H]23)cc1 | 0.935 ± 0.034 |
| CNC(=O)C[C@H]1CC[C@H]2[C@@H](COC[C@@H](O)CN2Cc2ccccc2F)O1 | 1.01 ± 0.041 |
| C/C=C/c1ccc2n(c1=O)C[C@@H]1[C@@H](CO)[C@H](C(=O)N3CCOCC3)N(Cc3ccccc3)[C@H]21.C/C=C\c1ccc2n(c1=O)C[C@@H]1[C@@H](CO)[C@H](C(=O)N3CCOCC3)N(Cc3ccccc3)[C@H]21 | 1.03 ± 0.065 |
| CO[C@@H]1CN(C)C(=O)c2cc(NC(=O)Nc3cccc(Cl)c3)ccc2OC[C@H](C)N(C(=O)Nc2c(C)noc2C)C[C@H]1C | 1.07 ± 0.019 |
| COc1ccc2c3c([nH]c2c1)[C@@H](CO)N(Cc1ccncc1)C[C@]31CN(Cc2ccc(cc2)-c2ccccn2)C1 | 0.908 ± 0.055 |
| Cc1noc(C)c1S(=O)(=O)Nc1ccc2c(c1)C(=O)N([C@@H](C)CO)C[C@@H](C)[C@@H](CN(C)C(=O)Nc1cccc3ccccc13)OCCCC[C@H](C)O2 | 0.828 ± 0.11 |
| CCc1nc(N2[C@H](C#N)[C@@H](c3ccccc3-c3ccc(F)cc3)[C@H]2CO)sc1C | 1.06 ± 0.095 |
| CO[C@H]1CN(C)C(=O)c2cc(NC(=O)C3CCOCC3)ccc2OC[C@@H](C)NC[C@H]1C | 1 ± 0.057 |
| COCC#Cc1ccc([C@@H]2[C@@H](CO)N3C(=O)CN(C(=O)C4CCCCC4)C[C@@H]23)cc1 | 1.09 ± 0.025 |
| CO[C@H]1CN(C)C(=O)c2cc(NC(=O)Nc3ccccc3F)ccc2OC[C@@H](C)N(CCC(F)(F)F)C[C@@H]1C | 0.957 ± 0.035 |
| COc1ccccc1CN1[C@@H]2c3cccc(=O)n3C[C@H]1[C@H](CO)[C@H]2C(=O)N1CCc2ccccc2C1 | 1.07 ± 0.055 |
| Cc1ccccc1-c1ccc([C@@H]2[C@@H](CO)N3C(=O)CN(S(C)(=O)=O)C[C@H]23)cc1 | 1.09 ± 0.045 |
| O=C(CN1CCOCC1)N1CC(=O)N2[C@H](C1)[C@H](c1ccc(-c3cccc(F)c3)cc1)[C@@H]2CO | 1.04 ± 0.075 |
| O=C(C[C@@H]1CC[C@@H](NS(=O)(=O)c2ccccc2F)[C@@H](CO)O1)NCCCN1CCOCC1 | 1 ± 0.13 |
| CC(=O)N1CC2(C1)[C@H](c1ccc(-c3cccc(C#N)c3)cc1)[C@H](CO)N2CCC(F)(F)F | 1.05 ± 0.11 |
| CS(=O)(=O)N1[C@H](C#N)[C@@H](c2ccc(C#Cc3cccc(F)c3)cc2)[C@@H]1CO | 1.1 ± 0.067 |
| O=C(C[C@@H]1CC[C@@H]2[C@H](COC[C@H](O)CN2C(=O)c2cc(Cl)cc(Cl)c2)O1)N1CCc2ccccc2C1 | 1.032 ± 0.0059 |

| SMILES | viability index |
| --- | --- |
| O=C(NCC1CC1)[C@@H]1[C@@H](CO)[C@@H]2Cn3c(ccc(-c4cccnc4)c3=O)[C@@H]2N1Cc1cocn1 | 1.12 ± 0.062 |
| CC(C)NC(=O)Nc1ccc2c(c1)C(=O)N(C)[C@H]1CC[C@H](CC(=O)NCc3ccc(F)cc3)O[C@H]1CO2 | 0.919 ± 0.034 |
| COc1ccc(NC(=O)N2CCCCN3[C@@H](CO)[C@H](c4ccc(-c5ccccc5F)cc4)[C@@H]3C2)cc1 | 1.01 ± 0.043 |
| CCS(=O)(=O)N1CC[C@@]2(CC1)CN[C@@H](CO)c1[nH]c3cc(OC)ccc3c21 | 0.995 ± 0.03 |
| N#C[C@H]1[C@@H](c2ccccc2-c2ccc(F)cc2)[C@@H](CO)N1C(=O)Cc1cccnc1 | 1.15 ± 0.046 |
| CC(=O)N1[C@@H](CO)[C@H](c2ccccc2)[C@@H]1CN(CC1CCC1)C(=O)CN(C)C | 1.01 ± 0.057 |
| CNC(=O)C[C@H]1CC[C@H]2[C@@H](COc3ccc(NC(=O)Nc4ccc(C#N)cc4)cc3C(=O)N2C)O1 | 1.02 ± 0.057 |
| O=C(C[C@H]1CC[C@@H](NC(=O)C2CC2)[C@H](CO)O1)Nc1ccccc1 | 0.839 ± 0.19 |
| C/C=C/c1ccccc1[C@@H]1[C@@H](CO)N(C(=O)Cc2ccccn2)[C@H]1C#N | 1.14 ± 0.12 |
| O=C(C[C@H]1CC[C@@H]2[C@H](COC[C@H](O)CN2S(=O)(=O)c2ccccc2)O1)NCC1CCCCC1 | 1.03 ± 0.046 |
| CO[C@H](CN(C)C(=O)Nc1ccc(Cl)cc1)[C@@H](C)CN(Cc1ccccc1Cl)[C@H](C)CO | 0.989 ± 0.015 |
| CO[C@H]1CC[C@H]2CCOc3c(C#N)cccc3C(=O)N(C)CC3(CCCCC3)CC(=O)N(C)C[C@@H]1O2 | 0.9754 ± 0.0087 |
| Cc1noc(C)c1S(=O)(=O)N(C)C[C@@H]1OCc2cnnn2CCCC(=O)N([C@H](C)CO)C[C@@H]1C | 1.07 ± 0.043 |
| CN1C(=O)c2cc(NC(=O)NCc3ccccc3)ccc2OC[C@H]2O[C@H](CC(=O)NCC3CCCCC3)CC[C@@H]21 | 0.926 ± 0.046 |
| CCS(=O)(=O)Nc1ccc2c(c1)C(=O)N(C)[C@@H]1CC[C@H](CC(=O)NCc3ccccc3F)O[C@H]1CO2 | 1.11 ± 0.093 |
| Fc1ccc(F)c(CN2[C@@H]3CNC[C@H]2[C@@H]3c2ccc(-c3ccncc3)cc2)c1 | 1 ± 0.065 |
| C[C@@H]1CN([C@@H](C)CO)C(=O)c2cccc(NC(=O)c3ccncc3)c2O[C@H]1CN(C)Cc1ccc2c(c1)OCO2 | 0.9415 ± 0.0089 |
| O=C(C[C@H]1CC[C@@H](NS(=O)(=O)c2ccc(F)cc2)[C@H](CO)O1)N1CCN(c2ccccc2)CC1 | 1.09 ± 0.12 |
| O=C(O)C[C@@H]1C[C@H]2c3cc(NC(=O)Nc4ccc(C(F)(F)F)cc4)ccc3O[C@H]2[C@H](CO)O1 | 1.11 ± 0.052 |
| COc1ccc2c3c([nH]c2c1)[C@H](CO)N(C[C@]31CCN(CC1)C(=O)Cc1ccncc1)C(=O)Nc1ccc(F)cc1 | 0.993 ± 0.069 |
| Cc1ccccc1-c1ccc([C@@H]2[C@H]3CN(S(C)(=O)=O)CC(=O)N3[C@H]2CO)cc1 | 1.118 ± 0.007 |
| O=C(C[C@@H]1CC[C@@H](NC(=O)c2ccc3c(c2)OCO3)[C@@H](CO)O1)NCc1ccc(Oc2ccccc2)cc1 | 1.06 ± 0.069 |
